# In PubChem BioAssay AID1030 (National Center for Advancing Translational Sciences (NCATS), 2008):
# Among all 220,000 compounds or so, about 16,000 (7.3%) were called active. The shares of active, inactive and inconclusive entries below differ from those in the screen. Calls follow the shape of the dose curve; as a rule, active = well fitted inhibition curve with a large enough effect (not every such curve was filed as active); inconclusive = small, poorly fitted or top-dose-only effect, or another doubt; inactive = no such curve, though single readings can be large or run the other way. Potencies of inconclusive entries are left out as doubtful fits.
# Molecular target: Aldehyde dehydrogenase 1A1 (Homo sapiens) (UniProt P00352)
# Test: qHTS Assay for Inhibitors of Aldehyde Dehydrogenase 1 (ALDH1A1);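 as to activity, negative = inhibition: plate controls were no enzyme wells and a reference inhibitor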
# Conditions: Purified ALDH1A1, NADH fluorescence, propionaldehyde substrate; series mostly up to 75.3 µM; activity, negative = inhibition: at the top concentration
# Potency is read from the fitted curve at half-maximal effect; tags tell the direction and shape of the fitted curve.
# Sequence of UniProt P00352 (P00352 whole entry, looked up): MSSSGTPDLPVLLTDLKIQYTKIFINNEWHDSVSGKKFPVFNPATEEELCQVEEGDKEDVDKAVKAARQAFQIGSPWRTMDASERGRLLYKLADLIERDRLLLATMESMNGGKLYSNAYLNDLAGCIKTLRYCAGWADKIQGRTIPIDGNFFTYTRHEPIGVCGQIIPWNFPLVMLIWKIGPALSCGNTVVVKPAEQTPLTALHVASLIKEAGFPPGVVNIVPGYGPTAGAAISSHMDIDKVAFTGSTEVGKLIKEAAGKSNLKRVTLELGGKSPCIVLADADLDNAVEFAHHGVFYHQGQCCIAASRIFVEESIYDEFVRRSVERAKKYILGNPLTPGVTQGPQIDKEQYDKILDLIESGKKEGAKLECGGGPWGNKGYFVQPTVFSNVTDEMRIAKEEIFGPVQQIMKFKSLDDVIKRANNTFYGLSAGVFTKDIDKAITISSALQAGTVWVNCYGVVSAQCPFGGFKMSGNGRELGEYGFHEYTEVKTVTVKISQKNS
SMILES,Potency,"activity, negative = inhibition"
CCC1CCCCN1C(=O)COc1c(Br)cc(Br)c2cccnc12 (stereo unspecified),"inconclusive [inhibitor, partial curve]",
CCOC(=O)c1c(CN(CC)CC)oc2cc(Br)c(O)cc12,"inconclusive [inhibitor, single point]",
Cc1ccc(-c2csc(Nc3ccc(C(=O)O)cc3)[n+]2Cc2ccccc2)cc1,"inconclusive [inhibitor, single point]",
CC(C)(C)NCC(=O)c1c[nH]c2ccccc12,active: 17.8 µM,
Cc1ccc(S(=O)(=O)NCC(=O)N(CC(=O)NCc2ccco2)Cc2ccco2)cc1,active: 8.91 µM,
Cc1ccc2c(c1)NCCO2,"inconclusive [inhibitor, partial curve]",
S=C(NCC1CCCO1)N1CCN(Cc2ccccc2Cl)CC1 (stereo unspecified),"inconclusive [inhibitor, single point]",
C=CCC1(CC=C)CCCN1C(=O)CC1C(=O)NCCN1Cc1cccc(OC)c1OC (stereo unspecified),,inactive: 7.19%
CC(=O)c1cccc(NC(=O)CSc2nnc(-c3ccc(S(=O)(=O)N4CCCC4)cc3)o2)c1,"inconclusive [inhibitor, partial curve]",
CC(=O)Nc1sc(N/N=C\c2ccccc2F)nc1-c1cccs1,"inconclusive [inhibitor, single point]",
CCOC(=O)N1CCC(NC(=O)C2CCN(C(=O)c3cc4oc(C)cc4n3Cc3c(F)cccc3Cl)CC2)CC1,active: 20 µM,
O=S(=O)(c1ccc(Cl)cc1)N1CCC(N2CCOCC2)CC1,"inconclusive [inhibitor, partial curve]",
COc1ccc2c(c1)CC/C(=C/c1ccncc1)C2=O,"inconclusive [inhibitor, single point]",
CC(NC(=O)CSc1nc2ccc(N)cc2s1)c1ccccc1 (stereo unspecified),"inconclusive [inhibitor, single point]",
CC(=O)Nc1ccc(/C(C)=N/NC(=O)c2ccc(F)cc2)cc1,,inactive: 0.651%
C=CCNC(=O)c1c(N)n(-c2cccc(S(N)(=O)=O)c2)c2nc3ccccc3nc12,"inconclusive [inhibitor, partial curve]",
N#C/C(=C\c1cccc(Oc2ccc(C(F)(F)F)cc2[N+](=O)[O-])c1)c1nc2ccccc2[nH]1,"inconclusive [inhibitor, single point]",
O=C(NCc1ccccc1)c1ccc(C2SCC(=O)N2Cc2ccccc2)cc1 (stereo unspecified),,inactive: -5.85%
Nn1c(SCC(=O)Nc2ccc(F)cc2F)nnc1C1CCCCC1,"inconclusive [inhibitor, single point]",
Cc1cc2c(=O)n(Cc3ccco3)c(SCC(=O)c3ccc(Cl)s3)nc2s1,active: 15.8 µM,
CCOCCn1c(SCc2ccc(F)cc2)nc2c1c(=O)[nH]c(=O)n2C,,inactive: -1.59%
COc1ccc(C(=O)n2nc(-c3ccco3)nc2SC)cc1OC,active: 28.2 µM,
CCOC(=O)c1cc2c3ccccc3n(CC)c2nc1N,"inconclusive [inhibitor, partial curve]",

SMILES,Potency,"activity, negative = inhibition"
COc1ccccc1N1C(=O)CC(N2CCc3ccccc32)C1=O (stereo unspecified),"inconclusive [inhibitor, single point]",
O=C(CSC(=S)N1CCCC1)c1cc(Br)cc(Br)c1O,active: 15.8 µM,
C/C(Cn1nc([N+](=O)[O-])cc1C)=N\NC(=O)COc1ccccc1[N+](=O)[O-],active: 14.1 µM,
COc1ccc(NC(=O)c2ccc(C(=O)c3ccccc3)o2)cc1,"inconclusive [inhibitor, single point]",
Cc1c(Br)cc(C(=O)NC2CCCCC2)c(C)c1C,,inactive: -2.22%
CC1(C)C2CC=C(/C=N/NC(=S)NCCc3ccccc3)C1C2 (stereo unspecified),"inconclusive [inhibitor, single point]",
O=C(Nc1nc2ccccc2[nH]1)c1ccc(Cl)c(S(=O)(=O)N2CCCC2)c1,"inconclusive [inhibitor, single point]",
COc1ccc(-c2nc(C#N)c(NCC3CCCO3)o2)cc1 (stereo unspecified),"inconclusive [inhibitor, partial curve]",
CCn1cc(C(=S)N2CCC(C(N)=O)CC2)c2ccccc21,,inactive: -4.43%
CN(CC(=O)N1CCOCC1)C(=O)CSc1nc2ccccc2s1,"inconclusive [inhibitor, single point]",
COc1ccc(-c2[nH]c(-c3ccc(F)cc3)nc2SCC(=O)NC2CCCC2)cc1,"inconclusive [inhibitor, partial curve]",
COc1ccc(C[C@H](O)CN2CCOCC2)cc1,,inactive: -2.77% [at 13.5 µM]
Cc1ccc(-n2c(CCc3ccccc3)nnc2SCC(=O)NCc2ccccc2)cc1C,"inconclusive [inhibitor, single point]",
CCOC(=O)C1CCN(C(=O)Nc2ccc(NC(=O)C3CCN(C(=O)OCC)CC3)cc2)CC1,,inactive: -1.92%
C=CCC1Cc2c(cccc2[N+](=O)[O-])C(CC=C)N1 (stereo unspecified),active: 15.8 µM,
O=C1c2c(O)cc(O)cc2OC(c2ccc(O)c(O)c2)C1O (stereo unspecified),inactive,
Cc1cc(C)n(-c2ncnc3sc4c(c23)CCCC4)n1,"inconclusive [inhibitor, partial curve]",
CCn1cc(C(=O)O)c(=O)c2cc(F)c(N3CCN(C(=O)Nc4ccccc4)CC3)cc21,"inconclusive [inhibitor, partial curve]",
CCOC(=O)OCC1OC(CCc2ccccc2)CCC1Oc1ccc(OC)cc1 (stereo unspecified),,inactive: 3.06% [at 13.5 µM]
Cn1nc(C(=O)Nc2nc3ccccc3[nH]2)ccc1=O,,inactive: 13%
COc1ccc2[nH]c(=O)c(CN(C(=O)c3ccncc3)C(C)C)cc2c1,"inconclusive [inhibitor, partial curve]",
COC(=O)CSC1=C(C#N)C(c2ccccc2)CC(=O)N1 (stereo unspecified),active: 15.8 µM,
COCC(=O)N(Cc1cc2cc(OC)ccc2[nH]c1=O)c1ccccc1OC,"inconclusive [inhibitor, partial curve]",
